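Test compounds were applied to cells in 96-well plates for 48 hours at 5 doses. The concentration for 50% growth inhibition is given as GI50.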 Calls of active or inactive are those of the source. No stated cut-off is given here; in the data, active = GI50 up to about 1.1 µM and inactive = higher.
tested on: NCI-H322M; experiment: NCI anticancer screen, dose series, 48 h

Structure (SMILES)	GI50
CCc1cc(Cc2cc(CC)c(NC(=O)C(=O)CC(=O)c3sc(-c4cccnc4)nc3C)c(CC)c2)cc(CC)c1NC(=O)C(=O)CC(=O)c1sc(-c2cccnc2)nc1C	inactive: > 100 µM
O=C(c1ccc(F)cc1)c1cccc(C(=O)c2ccc(F)cc2)n1	inactive: > 100 µM
Cc1ccc(C2SCc3nc4ccccc4n32)cc1 (stereo unspecified)	inactive: 5.19 µM
Cc1ccc(/C(=C\C(=O)C(=O)NC23CC4CC(CC(C4)C2)C3)Sc2ccccc2)cc1	inactive: > 10 µM
COc1cc([N+](=O)[O-])ccc1NC(=O)c1cccc([N+](=O)[O-])c1O	inactive: 26.9 µM
Cc1cc2nnn(C3CCCCO3)c2cc1C (stereo unspecified)	inactive: > 100 µM
CCc1c(Cl)c(C)cc(O)c1Cl	inactive: 24.7 µM
CC(=NNC(=S)Nc1ccc(C)cc1)c1cccc(C(C)=NNC(=S)Nc2ccc(C)cc2)n1	inactive: 28.5 µM
COc1ccc2c3c([nH]c2c1[N+](=O)[O-])C(C)=NCC3	inactive: 28.5 µM
COC(=O)CC(C)(N[S+]([O-])c1ccc(C)cc1)c1ccccc1 (stereo unspecified)	inactive: > 100 µM
O=C(O)CNC(=O)c1ccc2cc(C(=O)N3CC(CCl)c4ccc([N+](=O)[O-])cc43)[nH]c2c1 (stereo unspecified)	inactive: > 100 µM
CCn1c2ccccc2c(=O)c2c(OC)ccc(OC)c21	inactive: 60.5 µM
COc1cc2c(c(OC)c1OC)-c1ccc(SC)c(=O)cc1C(CC(=O)Oc1cccc([N+](=O)[O-])c1)C2 (stereo unspecified)	active: 1.12 µM
O=C(CCc1ccccc1)ON1C(=S)NC(c2ccccc2)(c2ccccc2)C1=S	inactive: 42.6 µM
NCCCCCCn1c(-c2ccc(Br)cc2)cs/c1=N\c1ccccc1	inactive: 13.1 µM
O=C1C(NCCO)=C(N2CC2)C(=O)C(NCCO)=C1N1CC1	inactive: 74.1 µM
O=c1c2ccccc2nc(Nc2cccc(Cl)c2)n1/N=C/C=C/c1ccccc1	inactive: 78.9 µM
CN(C)c1n/c(=N/Cc2ccccn2)ss1	inactive: > 10 µM
O=S(=O)(Cc1ccccc1)SCc1ccccc1	inactive: 45.7 µM
O=[N+]([O-])c1ccc(Cl)c(CNc2ncnc3c2ncn3C2CCCCO2)c1 (stereo unspecified)	inactive: > 100 µM
Clc1ccc(/C=C/c2nc(-c3ccc(Cl)cc3)cn3c2nc2ccccc23)cc1	inactive: > 100 µM
C=CC(=O)NC(O)(C(=O)OCC)C(F)(F)F (stereo unspecified)	inactive: > 100 µM
CCC1(C(=O)OC)CCc2c(OC)ccc(OC)c2C1=O (stereo unspecified)	inactive: > 100 µM

Structure (SMILES)	GI50
OCc1c[te]c(-c2ccccc2)c1	inactive: > 100 µM
O=C(NC(Nc1ccc(F)c(Cl)c1)(C(F)(F)F)C(F)(F)F)C(C(F)(F)F)C(F)(F)F	inactive: 42.8 µM
CCOC(=O)c1cc2cc3c4c(c2oc1=O)CCCN4CCC3	inactive: 41.5 µM
Cn1ccnc1Oc1ccc(Cl)cc1	inactive: 17.3 µM
CC(Oc1ccccc1Cl)C(=O)NN1C(=O)CSC1c1ccccc1 (stereo unspecified)	inactive: > 100 µM
COc1cc(C2c3cc4c(cc3OC3(OC)COC(=O)C23)OCO4)cc(OC)c1OC(C)=O (stereo unspecified)	inactive: 1.71 µM
COC(=O)C1OC(O[C@H]2CC[C@]3(C)[C@H]4CC=C5[C@@H]6CC(C)(C)CC[C@]6(C(=O)OC6OCC(O)C(O)C6OC6OC(C)C(OC7OCC(OC8OCC(O)C(O)C8O)C(O)C7O)C(O)C6O)[C@H](O)C[C@@]5(C)[C@]4(C)CC[C@H]3C2(C)C)C(O)C(O)C1O (stereo partly specified)	inactive: 3.38 µM
O=C1OC(c2ccccc2)=N/C1=C\c1ccc(Cl)cc1	inactive: > 100 µM
O=C(Nc1ccc(Cl)cc1)NS(=O)(=O)c1coc2cc(F)ccc2c1=O	inactive: > 100 µM
CCN(CC)Cc1cc(Nc2ccnc3ccc4nn(C)nc4c23)ccc1O	inactive: 13.7 µM
CN(C)c1ccc(/C=C(\NC(=O)c2ccccc2)c2nn(C)c(=O)o2)cc1	inactive: > 100 µM
N#CC1=C(c2ccccc2)NN(Cc2ccccc2)C(c2ccc(Cl)cc2)CC1=O (stereo unspecified)	inactive: 26.5 µM
C=C(CBr)CCCOCc1ccccc1	inactive: > 100 µM
Cc1cc(Br)cc(C)c1NC(=O)C(=O)C(C(=O)c1ccncc1)C1OC(=O)c2ccccc21 (stereo unspecified)	inactive: > 100 µM
OC1[C@H]([C@H]2CCCC[C@@H]2O)CCC[C@@H]1[C@@H]1CCCC[C@H]1O (stereo partly specified)	inactive: > 100 µM
COC(=O)C1C=CCON2CCc3c(n(S(=O)(=O)c4ccccc4)c4ccccc34)C12 (stereo unspecified)	inactive: > 100 µM
COCOCC[C@@H]1CC=CC(NC(=O)OCc2ccccc2)C1/C=C/C(=O)CCC1OCCO1 (stereo partly specified)	inactive: 70.8 µM
Cc1ccccc1NC(=N)Nc1ccccc1C	inactive: > 100 µM
COC(=O)[C@H](COC(=O)/C=C/c1ccc(OC(C)=O)c(OC(C)=O)c1)NC(=O)/C=C/c1ccc(OC(C)=O)c(OC(C)=O)c1	inactive: 18.5 µM
Oc1cc(-c2ccc(F)cc2)nc2ncccc12	inactive: 71.6 µM
O=C(O)CNS(=O)(=O)c1ccc(NCc2ccccc2)cc1	inactive: > 100 µM
COc1ccc2cc(CNCCOCCOCCNCc3ccc4cc(OC)ccc4c3)ccc2c1	active: 0.697 µM
Cc1c2cc[n+](C)cc2c(C)c2c1[nH]c1ccc(OC(C)(C)C)cc12	inactive: > 100 µM

— ChEMBL document CHEMBL1201862, “PubChem BioAssay data set” (2004)
